The chains are these.
B1: chr21:41885111:41889123:-|three_prime_utr|ENSG00000157617|control|control|control (ssRNA)
RNA: GGGAGUUCUACAGUCCGACGAUCCCAACUUGCCACCAGAUGCUAAAUGAGACUUGACAGCUGCAGAGCUUGGGCUGUGCUCAUAGCUAAGGGUUAGGGUUCAAUAUUAGAAGGAGAUUAACAUUAUAAGUGAAAUAAUAUGCUCAACAGAGGAUUGAGCAUCA
B2: chr13:109754583:109754684:-|3pUTR|ENSG00000185950|msi1|FALSE|unique (ssRNA)
RNA: GGGAGUUCUACAGUCCGACGAUCGAUCUCCCUGAACAUUUUUAAGGUUUUACUUUUCUGAAAUUAUACAUCACAGCAGUGCAUAGGCCAUAUAAUGUUAGCUGGAAGGUCAAUUUCAGUGUAUGAUAUACUUUAUUAAGAUGUCAACAGAGGAUUGAGCAUCA
B3: ENSG00000198589:be:win_6151|CDS|ENSG00000198589|bound_else_gene|NA|bound_elsewhere_windowed (ssRNA)
RNA: GGGAGUUCUACAGUCCGACGAUCACUCUGUCAUCCGUGGAUGAGAAAGAUUUAGAGAAUCUUGCCGGUCCUGUUAGCCUGAGCACACCAGCUCAGCUUGUGGCCCCCUCUGUUGUAGUAAAGGGCACUCUUUCUGUCACCUCCCAACAGAGGAUUGAGCAUCA
B4: ENSG00000170502:stop:overlap|stop_codon|ENSG00000170502|stop_codon|NA|stop_codon (ssRNA)
RNA: GGGAGUUCUACAGUCCGACGAUCUGGCUGAGAAACGAGAUGCACACUGGAGCGAGGACUCUGAAGCUGACUGCCAUGCGUUGUAGCUGAUGGUCUCCGUGUAAGCCAAAGGCCCACAGAGGAGCAUAUACUGAAAAGAAGGCACAACAGAGGAUUGAGCAUCA
B5: chr1:35359206:35359314:+|CDS|ENSG00000146463|unk|FALSE|bound_elsewhere (ssRNA)
RNA: GGGAGUUCUACAGUCCGACGAUCAAAGACUUUCCUAAACAAUUUGAUCAGGUUUCUGUCUUUAAAUCAAUACGGAAAGAUUUUAGUCUAGUAAGAGAAAACAGCAAAGAGACAUUUUCUGGAAAGGAGAAAAAUAGAGACCUACAACAGAGGAUUGAGCAUCA
B6: chr9:15171111:15171212:-|3pUTR|ENSG00000155158|unk|total|mutant (ssRNA)
RNA: GGGAGUUCUACAGUCCGACGAUCCUGCUUUAAAUGAUAUGUAAAAUAUCAAUAAUUUUUACACUUAAGAUGUUGGUAAGACCCCGUUUUCUAAUCUCUCCCGCACUGUGAUGUCUCCUUGCCGAUAAUCUGGACCUUGCUCCGCAACAGAGGAUUGAGCAUCA
B7: chr1:110340924:110341033:+|CDS|ENSG00000162775|unk|FALSE|unique (ssRNA)
RNA: GGGAGUUCUACAGUCCGACGAUCUGCUGCCUGGACCCAUAUGCGGGGCUUCCCACUUGGUGGCCCAGAUCGACGCCUUAGAGUAGACUUUGCCGACACCGAACAUCGUUACCAGCAGCAGUAUCUGCAGCCUCUGCCCUUGACCAACAGAGGAUUGAGCAUCA
B8: chr9:35056615:35056731:-|3pUTR|ENSG00000165280|msi1|total|mutant (ssRNA)
RNA: GGGAGUUCUACAGUCCGACGAUCCCCUAUCCAACCUGGGCCGGUGGGCCGGGGCCACAGUUGCUGGAUGUUUAUACCGAGAGCCGGUUGAUUUAUUUUACAUGCUUUUGAGUUAAUGUUGGAAAACUAAUCACAAGCAGUUUCCAACAGAGGAUUGAGCAUCA
B9: ENSG00000086827:stop:overlap|stop_codon|ENSG00000086827|stop_codon|NA|stop_codon (ssRNA)
RNA: GGGAGUUCUACAGUCCGACGAUCUAAUUCGUGCCUUGUUUCAGAACACAGAAAGAAGAGCAGCUGCCCUUGCUAAAAUUAAAUAGCUCCAUCUUCUUAAGAAAGCUAUGUCUUGAAUAUGUGGAUUCUUCCCUUGGCAUAAUUCAACAGAGGAUUGAGCAUCA
B10: chr2:222942681:222942782:+|3pUTR|ENSG00000123983|msi1|FALSE|unique (ssRNA)
RNA: GGGAGUUCUACAGUCCGACGAUCAAAAUUAGUGUUUUUCCUAGUUUGCACUGAUGCGUGUAUGGAUGUGUGUGAGUCAGUGGUAGCUUAUUUAAAAAGCACCUUAUCCUUUCUCCCAUAACCUUUGUACACUAAAAAAUGAAACAACAGAGGAUUGAGCAUCA
B11: chr6:43570573:43570674:-|CDS|ENSG00000124571|unk|FALSE|unique (ssRNA)
RNA: GGGAGUUCUACAGUCCGACGAUCGGUGUAGGAAACACAGACAGAAUUGGUGAUGUUUAUCCUUUUGCGACUGGCAGAGGAUGUAGUGACUUUUCAGACACUUCCCCCUCAAAGAAGAAGGGACAUCCAGCAAACAUUAACCCACAACAGAGGAUUGAGCAUCA
B12: chr11:83166318:83166419:+|CDS|ENSG00000165494|unk|total|mutant (ssRNA)
RNA: GGGAGUUCUACAGUCCGACGAUCGGGACAAAACCAGGGAGAUCGAGUACCCGAAAGCGAUCAAGAUCUCGAUCACCCAAGUCCCGGUCACCAAUUAUACAUUCCCCAAAGAGAAGAGACCGGCGGUCACCCAAACGAAGGCAACAACAGAGGAUUGAGCAUCA
B13: ENSG00000198589:be:win_301|CDS|ENSG00000198589|bound_else_gene|NA|bound_elsewhere_windowed (ssRNA)
RNA: GGGAGUUCUACAGUCCGACGAUCAAAUGUGACAUUACGUGCCAAGCAGAAGUCUGGAGCAUGUUUACAGCCAUUCUGAAGAAAAGCAUACGGAAUCUUCAAGUCUGCACUGAAGUAGGCCUUGUUGAAAAAGUGCUUGGGAAACAACAGAGGAUUGAGCAUCA
B14: chr14:88620753:88620926:-|CDS|ENSG00000165521|control|control|control (ssRNA)
RNA: GGGAGUUCUACAGUCCGACGAUCCAGCCCUGAAGGGGACAUGGUGGCUAUUGGAAUGAAAAAUGGAGAAUUUAUCAUUUUACUAGUGAGUUCUCUAAAAAUAUGGGGAAAGAAGAGAGACAGGAGAUGUGCAAUCCAUGAUAUCAACAGAGGAUUGAGCAUCA
B15: chr5:154817497:154817598:+|3pUTR|ENSG00000155506|msi1_unk|total|mutant (ssRNA)
RNA: GGGAGUUCUACAGUCCGACGAUCUUAUUGAGAGUAUCUGCUUUCCAGGCUGAAGUGAUUCAUUCAUUAUUCCCGUCCUGCUUCCGUCCUUUGUAAUUUGUGGUAAUUAUGCUUUUCUUUUUAAUACAAAAAAAUGUAUAAAAACAACAGAGGAUUGAGCAUCA
B16: chr19:53069209:53069329:-|CDS|ENSG00000170949|unk|FALSE|unique (ssRNA)
RNA: GGGAGUUCUACAGUCCGACGAUCUGGAGAGAAACCUUACAAGUGCAAUGAGUGCGGCAAAGCCUUUAGUGUUCGUUCAAGCCUAGCAAUCCAUCAGACAAUCCACACUGGAGAAAAACCUUACAAAUGUAAUGAAUGUGGCAACAACAGAGGAUUGAGCAUCA
B17: ENSG00000107863:be:win_3501|CDS|ENSG00000107863|bound_else_gene|NA|bound_elsewhere_windowed (ssRNA)
RNA: GGGAGUUCUACAGUCCGACGAUCAUGUUGCAAAUUAGUUGAAGAAAGAGGUCUUGAAUAUACAGGUAUUUAUAGAGUUCCUGGAAAUAAUGCAGCCAUCUCAAGUAUGCAAGAAGAACUCAACAAGGGAAUGGCUGAUAUUGACAACAGAGGAUUGAGCAUCA
B18: chr7:92618090:92618217:-|CDS|ENSG00000105810|unk|total|mutant (ssRNA)
RNA: GGGAGUUCUACAGUCCGACGAUCUAUGUCCAUGUGUGGUUCUUUUGCCGCGUGAUUGGACUCCCAGGAGAAGAAGACUGGCCCCGAGAUGUUGCCCUUCCCAGGCAGGCUUUUCAUUCAAAAUCUGCCCAACCAAUUGAGAAGCAACAGAGGAUUGAGCAUCA
B19: chr1:235182574:235182675:-|CDS|ENSG00000054267|unk|FALSE|unique (ssRNA)
RNA: GGGAGUUCUACAGUCCGACGAUCUUUGACCAACAACAGAAAUGAUCUUAUUUCAAAGGAGGAACAGAACAGUUCAUCUUUGCUAGAAGAAAACAAAGUUCAUGCAGAUUUGGUAAUAUCCAAACCAGUGUCAAAAUCUCCAGACAACAGAGGAUUGAGCAUCA
B20: chr11:69651696:69651723:+|3pUTR|ENSG00000110092|msi1_unk|FALSE|overlapping (ssRNA)
RNA: GGGAGUUCUACAGUCCGACGAUCGAGGAUUAGGUUCCAUCCUUUACGUGUUUAAAAAAAAGCAUAAAAACAUUUUAAAAACAUAGAAAAAUUCAGCAAACCAUUUUUAAAGUAGAAGAGGGUUUUAGGUAGAAAAACAUAUUCCAACAGAGGAUUGAGCAUCA
B21: chr7:158734047:158734148:-|3pUTR|ENSG00000117868|msi1_unk|total|mutant (ssRNA)
RNA: GGGAGUUCUACAGUCCGACGAUCCUACCCGGAACACACCCUCUCACAGACGUACCAAUGUUAUUUUUAUAAUUUCAUGGAUUCCGUUAUACAUACCUUAACCGUUUUAUAAAAUUGUUGACAUUUCAGGCAAAUUUGGCCAAUCAACAGAGGAUUGAGCAUCA
B22: chr19:7926739:7926850:-|3pUTR|ENSG00000104980|unk|FALSE|unique (ssRNA)
RNA: GGGAGUUCUACAGUCCGACGAUCAGGGUGGGACCCGGGACCCGCGGCUCAGUGGCCCGCUAGCCACGUCAGCCAAGCCACUUUAGGUCCAUUUUUUAAUUUUAACAGUGCUCUUCCAUCUUGUGCAUAAGCCUGAGAUUUGGACAACAGAGGAUUGAGCAUCA

These results are taken from PMC12136788.

The list shows a part of the results.

This test has as its target MSI1 full-length (mouse, UniProt Q61474 1-362). The test is described as follows: nsRBNS (natural sequence RNA bind-n-seq); RBNS binding buffer (assumed for nsRBNS): 25 mM Tris pH 7.5, 150 mM KCl, 3 mM MgCl2, 0.01% Triton X-100, 500 ug/ml BSA, 20 U/ml SUPERase-In, 4 C; UNK is unkempt and MSI1 is Musashi-1; names of the RNAs are library labels; protein concentration not given here; high values mean tight binding.
Chain of UniProt Q61474 (Q61474 whole entry): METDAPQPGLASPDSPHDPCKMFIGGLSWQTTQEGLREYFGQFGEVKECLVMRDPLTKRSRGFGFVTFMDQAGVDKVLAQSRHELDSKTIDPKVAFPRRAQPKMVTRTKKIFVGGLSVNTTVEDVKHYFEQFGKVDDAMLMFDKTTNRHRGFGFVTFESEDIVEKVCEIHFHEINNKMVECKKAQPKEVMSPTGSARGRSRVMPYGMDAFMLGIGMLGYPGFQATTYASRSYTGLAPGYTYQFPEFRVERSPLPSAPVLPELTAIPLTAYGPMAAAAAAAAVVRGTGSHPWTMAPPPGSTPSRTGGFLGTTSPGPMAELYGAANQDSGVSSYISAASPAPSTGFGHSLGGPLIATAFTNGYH
In turn, B1 registered a binding signal of 5.8 enrichment R.
B2 registered a binding signal of 0.697 enrichment R.
B3 gave a binding signal of 0.565 enrichment R.
The molecule B4 yielded a binding signal of 0.705 enrichment R.
B5 came in with a binding signal of 2.98 enrichment R.
The result for B6 reads 0.417 enrichment R; that for B7, 0.745 enrichment R; that for B8, 0.467 enrichment R.
Consider B9, for which the binding signal turned out to be 1.89 enrichment R.
In turn, B10 gave a binding signal of 0.719 enrichment R.
The result for B11 reads 0.397 enrichment R; that for B12, 0.29 enrichment R; that for B13, 0.234 enrichment R.
As for B14, the binding signal was 0.549 enrichment R.
Molecule B15 came in with a binding signal of 0.621 enrichment R.
B16 showed a binding signal of 0.707 enrichment R.
Regarding B17, the binding signal came to 3.14 enrichment R.
Next, B18: 0.406 enrichment R; B19: 0.21 enrichment R.
B20: the binding signal amounted to 17.8 enrichment R.
For the molecule B21, the binding signal came to 0.582 enrichment R.
The molecule B22 came in with a binding signal of 0.641 enrichment R.
